Laboratory results taken from the antibiotic and cytotoxicity screens of Wong et al. (2023).
The other results are listed elsewhere or left out.

Legend:
HSkMC = human skeletal muscle cells; assay: cytotoxicity call (relative viability < 0.9); conditions: 10 µM
HepG2 = assay: cytotoxicity call (relative viability < 0.9); conditions: 10 µM
S. aureus RN4220 = assay: growth inhibition call (relative growth <= 0.2); conditions: 50 µM

For `COc1ccc2c3c(n(c2c1)C)[C@@H](CO)N(Cc1ccccc1)C[C@]13CCN(CC1)C(=O)c1ccccc1F`, the cytotoxicity call (HSkMC) was “inactive”, the cytotoxicity call (HepG2) was “inactive” and the growth inhibition call (S. aureus RN4220) was “inactive”.
With `CCS(=O)(=O)N1C[C@]2(C1)CN([C@@H](CO)c1c2c2ccc(cc2n1C)OC)C(=O)Nc1cccc(c1)F` the cytotoxicity call (HSkMC) was “inactive”, the cytotoxicity call (HepG2) was “inactive” and the growth inhibition call (S. aureus RN4220) was “inactive”.
For `NCCCC(O)(P(=O)(O)O)P(=O)(O)O.O.O.O.[Na+]`, the cytotoxicity call (HSkMC) was “inactive”, the cytotoxicity call (HepG2) was “inactive” and the growth inhibition call (S. aureus RN4220) was “inactive”.
For `Cc1noc(C)c1NC(=O)Nc1ccc2c(c1)C(=O)N([C@@H](C)CO)C[C@H](C)[C@@H](CN(C)C(=O)Nc1ccc(F)cc1)OCCCC[C@H](C)O2`, the cytotoxicity call (HSkMC) was “inactive”, the cytotoxicity call (HepG2) was “inactive” and the growth inhibition call (S. aureus RN4220) was “inactive”.
In the case of `COc1ccc(S(=O)(=O)Nc2ccc3c(c2)C(=O)N([C@@H](C)CO)C[C@@H](C)[C@H](CN(C)Cc2ccccc2)OCCCC[C@@H](C)O3)cc1`, the cytotoxicity call (HSkMC) is reported as “inactive”, the cytotoxicity call (HepG2) is reported as “inactive” and the growth inhibition call (S. aureus RN4220) is reported as “inactive”.
With `COc1ccc(NC(=O)N(C)C[C@H]2OCCCC[C@@H](C)Oc3ccc(NC(=O)Nc4ccccc4)cc3C(=O)N([C@@H](C)CO)C[C@H]2C)cc1` the cytotoxicity call (HSkMC) was “inactive”, the cytotoxicity call (HepG2) was “inactive” and the growth inhibition call (S. aureus RN4220) was “inactive”.
In the case of `Cc1ccc(S(=O)(=O)N(C)C[C@@H]2Oc3ncc(C#CCC(C)C)cc3C(=O)N([C@H](C)CO)C[C@H]2C)cc1`, the cytotoxicity call (HSkMC) is reported as “inactive”, the cytotoxicity call (HepG2) is reported as “inactive” and the growth inhibition call (S. aureus RN4220) is reported as “inactive”.
With `COc1ccc(NC(=O)N(C)C[C@H]2OCCCC[C@H](C)Oc3ccc(NC(=O)Nc4ccccc4)cc3C(=O)N([C@@H](C)CO)C[C@@H]2C)cc1` the cytotoxicity call (HSkMC) was “inactive”, the cytotoxicity call (HepG2) was “inactive” and the growth inhibition call (S. aureus RN4220) was “inactive”.
With `C[C@@H]1CN([C@@H](C)CO)C(=O)c2cc(Br)cnc2O[C@@H]1CN(C)C(=O)CN1CCOCC1` the cytotoxicity call (HSkMC) was “inactive”, the cytotoxicity call (HepG2) was “inactive” and the growth inhibition call (S. aureus RN4220) was “inactive”.
`C[C@@H]1CN([C@@H](C)CO)C(=O)c2cccc(NC(=O)c3ccc(-c4nccs4)cc3)c2O[C@@H]1CN(C)Cc1ccc(C(=O)Nc2ccccc2N)cc1` was tested, and the cytotoxicity call (HSkMC) was “inactive”, the cytotoxicity call (HepG2) was “active” and the growth inhibition call (S. aureus RN4220) was “inactive”.
In the case of `COc1ccc(CNC(=O)N(C)C[C@@H]2OCc3ccccc3-c3c(n(C)c4ccccc34)C(=O)N([C@H](C)CO)C[C@H]2C)cc1`, the cytotoxicity call (HSkMC) is reported as “inactive”, the cytotoxicity call (HepG2) is reported as “inactive” and the growth inhibition call (S. aureus RN4220) is reported as “inactive”.
In the case of `C[C@H](CO)N1C[C@H](C)[C@@H](CN(C)C(=O)Nc2cccc3ccccc23)Oc2c(NC(=O)C3CCCCC3)cccc2C1=O`, the cytotoxicity call (HSkMC) is reported as “inactive”, the cytotoxicity call (HepG2) is reported as “inactive” and the growth inhibition call (S. aureus RN4220) is reported as “inactive”.
`C[C@@H]1CN([C@@H](C)CO)S(=O)(=O)c2ccc(C#CC(C)(C)O)cc2O[C@@H]1CN(C)C(=O)CN(C)C` was tested, and the cytotoxicity call (HSkMC) was “inactive”, the cytotoxicity call (HepG2) was “inactive” and the growth inhibition call (S. aureus RN4220) was “inactive”.
`Cc1noc(C)c1NC(=O)N(C)C[C@@H]1Oc2ccc(NC(=O)C3CC3)cc2C(=O)N([C@H](C)CO)C[C@@H]1C` was tested, and the cytotoxicity call (HSkMC) was “inactive”, the cytotoxicity call (HepG2) was “inactive” and the growth inhibition call (S. aureus RN4220) was “inactive”.
With `CO[C@@H]1CN(C)C(=O)c2cc(NS(=O)(=O)CC(F)(F)F)ccc2OC[C@@H](C)N(Cc2cccnc2)C[C@@H]1C` the cytotoxicity call (HSkMC) was “inactive”, the cytotoxicity call (HepG2) was “inactive” and the growth inhibition call (S. aureus RN4220) was “inactive”.
With `COc1ccccc1CNC(=O)C[C@@H]1CC[C@@H]2[C@H](COC[C@H](O)CN2C(=O)Nc2ccc(F)cc2)O1` the cytotoxicity call (HSkMC) was “inactive”, the cytotoxicity call (HepG2) was “inactive” and the growth inhibition call (S. aureus RN4220) was “inactive”.
With `C[C@H]1CN([C@@H](C)CO)C(=O)c2cccc(NC(=O)Nc3cccc4ccccc34)c2O[C@H]1CN(C)C(=O)Nc1ccc(F)cc1` the cytotoxicity call (HSkMC) was “inactive”, the cytotoxicity call (HepG2) was “inactive” and the growth inhibition call (S. aureus RN4220) was “inactive”.
With `Cc1cc(C(=O)Nc2cccc3c2O[C@H](CN(C)C(=O)NC2CCCCC2)[C@@H](C)CN([C@@H](C)CO)C3=O)n(C)n1` the cytotoxicity call (HSkMC) was “inactive”, the cytotoxicity call (HepG2) was “inactive” and the growth inhibition call (S. aureus RN4220) was “inactive”.
In the case of `C[C@@H]1CCCCO[C@H](CN(C)S(=O)(=O)c2ccccc2)[C@H](C)CN([C@@H](C)CO)C(=O)c2cc(NC(=O)c3ccccc3)ccc2O1`, the cytotoxicity call (HSkMC) is reported as “inactive”, the cytotoxicity call (HepG2) is reported as “inactive” and the growth inhibition call (S. aureus RN4220) is reported as “inactive”.
In the case of `CON=C(C(=O)NC1C(=O)N2C(C(=O)O)=C(CSC(=O)c3ccco3)CSC12)c1csc(N)n1.Cl` (stereo not given), the cytotoxicity call (HSkMC) is reported as “inactive”, the cytotoxicity call (HepG2) is reported as “inactive” and the growth inhibition call (S. aureus RN4220) is reported as “active”.
With `COc1ccc(S(=O)(=O)N(C)C[C@@H]2Oc3ccc(NS(C)(=O)=O)cc3CC(=O)N([C@@H](C)CO)C[C@@H]2C)cc1` the cytotoxicity call (HSkMC) was “inactive”, the cytotoxicity call (HepG2) was “inactive” and the growth inhibition call (S. aureus RN4220) was “inactive”.
For `COc1cccc(S(=O)(=O)Nc2ccc3c(c2)[C@@H]2C[C@H](CC(=O)NCC(F)(F)F)O[C@H](CO)[C@@H]2O3)c1`, the cytotoxicity call (HSkMC) was “inactive”, the cytotoxicity call (HepG2) was “inactive” and the growth inhibition call (S. aureus RN4220) was “inactive”.
In the case of `COc1ccc([N+](=O)[O-])cc1CNCCO`, the cytotoxicity call (HSkMC) is reported as “inactive”, the cytotoxicity call (HepG2) is reported as “inactive” and the growth inhibition call (S. aureus RN4220) is reported as “inactive”.
With `COc1ccc(NC(=O)N(C)C[C@@H]2Oc3ncc(C#C[C@@H](C)O)cc3C(=O)N([C@H](C)CO)C[C@H]2C)cc1` the cytotoxicity call (HSkMC) was “inactive”, the cytotoxicity call (HepG2) was “inactive” and the growth inhibition call (S. aureus RN4220) was “inactive”.
In the case of `C[C@H]1CN([C@@H](C)CO)C(=O)c2cc(NC(=O)CCC(F)(F)F)ccc2O[C@@H]1CN(C)S(=O)(=O)c1cn(C)cn1`, the cytotoxicity call (HSkMC) is reported as “inactive”, the cytotoxicity call (HepG2) is reported as “inactive” and the growth inhibition call (S. aureus RN4220) is reported as “inactive”.
